Assay results from the supplement of paper PMC9151546.
Repeats are few or missing, and single values can be far off.

Key:
CHO-K1 [1] = experiment: micronucleus frequency (% of nucleated events); higher = more micronuclei (genotoxic)
CHO-K1 [2] = experiment: hypodiploid nuclei frequency (% of nucleated events); higher = more hypodiploid events (aneugenic)
Experimental: (§1)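 Flow-cytometric in vitro micronucleus assay (Litron MicroFlow) in CHO-K1 cells in 96-well plates, 19 concentrations (4.5-200 µM, n=1 per concentration). Without S9, cells were exposed for 24 h and sampled at 48 h. With Aroclor 1254-induced rat liver S9, cells were exposed for 3-4 h and sampled at 27-28 h. Read-outs are %MN and %hypodiploid nuclei relative to nucleated events, and relative survival as the nuclei-to-bead ratio versus the 1% DMSO vehicle control (x100).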

CHO-K1 [3] = experiment: relative survival (nuclei to bead ratio vs DMSO control) (% of vehicle control); higher = more surviving cells
Experimental: as §1
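Throughout, for hypodiploid nuclei frequency (% of nucleated events): hypodiploid nuclei gated on a flow cytometer with 488 nm excitation after SYTOX Green staining, cultures at 37 °C, positive controls vinblastine without S9 and cyclophosphamide with S9.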
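Throughout, for micronucleus frequency (% of nucleated events): cells lysed with nuclei stained by SYTOX Green, then micronucleus-gated events counted against nucleated events by flow cytometry with 488 nm excitation.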
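Throughout, for relative survival (nuclei to bead ratio vs DMSO control): Lysed-cell nuclei stained with SYTOX Green and counted against counting beads by flow cytometry at 488 nm excitation, with vinblastine (no S9) and cyclophosphamide (plus S9) as positive controls.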

CCOCCOCCO [2-(2-Ethoxyethoxy)ethanol]
Conditions | hypodiploid nuclei frequency, CHO-K1 [2] [%] | micronucleus frequency, CHO-K1 [1] [%] | relative survival, CHO-K1 [3]
concentration: 4.5 (µM), S9 metabolic activation: with S9, exposure time: 3-4 hours | 0.3 | 0.96 | 137
concentration: 4.5 (µM), S9 metabolic activation: without S9, exposure time: 24 hours | 1.1 | 1.04 | 96.4
concentration: 5.63 (µM), S9 metabolic activation: with S9, exposure time: 3-4 hours | 0.16 | 0.98 | 144
concentration: 5.63 (µM), S9 metabolic activation: without S9, exposure time: 24 hours | 1.24 | 0.98 | 107
concentration: 7.04 (µM), S9 metabolic activation: with S9, exposure time: 3-4 hours | 0.26 | 1.02 | 115
concentration: 7.04 (µM), S9 metabolic activation: without S9, exposure time: 24 hours | 1.02 | 1.3 | 82.1
concentration: 8.8 (µM), S9 metabolic activation: with S9, exposure time: 3-4 hours | 0.24 | 0.92 | 99.9
concentration: 8.8 (µM), S9 metabolic activation: without S9, exposure time: 24 hours | 0.88 | 1.5 | 101
concentration: 11 (µM), S9 metabolic activation: with S9, exposure time: 3-4 hours | 0.26 | 0.8 | 107
concentration: 11 (µM), S9 metabolic activation: without S9, exposure time: 24 hours | 0.92 | 1.42 | 102
concentration: 13.7 (µM), S9 metabolic activation: with S9, exposure time: 3-4 hours | 0.2 | 0.9 | 102
concentration: 13.7 (µM), S9 metabolic activation: without S9, exposure time: 24 hours | 0.7 | 1.22 | 78.7
concentration: 17.2 (µM), S9 metabolic activation: with S9, exposure time: 3-4 hours | 0.18 | 1.22 | 94.6
concentration: 17.2 (µM), S9 metabolic activation: without S9, exposure time: 24 hours | 0.76 | 1.34 | 80.9
concentration: 21.5 (µM), S9 metabolic activation: with S9, exposure time: 3-4 hours | 0.22 | 0.84 | 93.7
concentration: 21.5 (µM), S9 metabolic activation: without S9, exposure time: 24 hours | 1.02 | 1.46 | 94.8
concentration: 26.8 (µM), S9 metabolic activation: with S9, exposure time: 3-4 hours | 0.42 | 1.64 | 129
concentration: 26.8 (µM), S9 metabolic activation: without S9, exposure time: 24 hours | 1.16 | 1.08 | 83
concentration: 33.6 (µM), S9 metabolic activation: with S9, exposure time: 3-4 hours | 0.32 | 1.7 | 122
concentration: 33.6 (µM), S9 metabolic activation: without S9, exposure time: 24 hours | 1.02 | 0.96 | 92.8
concentration: 41.9 (µM), S9 metabolic activation: with S9, exposure time: 3-4 hours | 0.26 | 1.32 | 121
concentration: 41.9 (µM), S9 metabolic activation: without S9, exposure time: 24 hours | 0.82 | 1.06 | 111
concentration: 52.4 (µM), S9 metabolic activation: with S9, exposure time: 3-4 hours | 0.34 | 1.36 | 125
concentration: 52.4 (µM), S9 metabolic activation: without S9, exposure time: 24 hours | 1 | 1.32 | 98.5
concentration: 65.5 (µM), S9 metabolic activation: with S9, exposure time: 3-4 hours | 0.34 | 1.76 | 102
concentration: 65.5 (µM), S9 metabolic activation: without S9, exposure time: 24 hours | 0.9 | 1.3 | 90.6
concentration: 81.9 (µM), S9 metabolic activation: with S9, exposure time: 3-4 hours | 0.34 | 1.74 | 104
concentration: 81.9 (µM), S9 metabolic activation: without S9, exposure time: 24 hours | 1 | 1.22 | 85.2
concentration: 102 (µM), S9 metabolic activation: with S9, exposure time: 3-4 hours | 0.24 | 1.7 | 115
concentration: 102 (µM), S9 metabolic activation: without S9, exposure time: 24 hours | 1.24 | 1.34 | 87.5
concentration: 128 (µM), S9 metabolic activation: with S9, exposure time: 3-4 hours | 0.3 | 1.8 | 105
concentration: 128 (µM), S9 metabolic activation: without S9, exposure time: 24 hours | 1.3 | 1.9 | 90.6
concentration: 160 (µM), S9 metabolic activation: with S9, exposure time: 3-4 hours | 0.32 | 1.34 | 99.9
concentration: 160 (µM), S9 metabolic activation: without S9, exposure time: 24 hours | 1.74 | 2.12 | 92.8
concentration: 200 (µM), S9 metabolic activation: with S9, exposure time: 3-4 hours | 0.32 | 2.1 | 105
concentration: 200 (µM), S9 metabolic activation: without S9, exposure time: 24 hours | 1.38 | 2.56 | 79.5

CCC(C)c1ccccc1O (stereo not given) [2-(Butan-2-yl)phenol]
Conditions | hypodiploid nuclei frequency, CHO-K1 [2] [%] | micronucleus frequency, CHO-K1 [1] [%] | relative survival, CHO-K1 [3]
concentration: 4.5 (µM), S9 metabolic activation: with S9, exposure time: 3-4 hours | 0.16 | 1.58 | 170
concentration: 4.5 (µM), S9 metabolic activation: without S9, exposure time: 24 hours | 0.86 | 2.56 | 140
concentration: 5.63 (µM), S9 metabolic activation: with S9, exposure time: 3-4 hours | 0.2 | 0.94 | 176
concentration: 5.63 (µM), S9 metabolic activation: without S9, exposure time: 24 hours | 1.02 | 2.84 | 164
concentration: 7.04 (µM), S9 metabolic activation: with S9, exposure time: 3-4 hours | 0.2 | 1.38 | 173
concentration: 7.04 (µM), S9 metabolic activation: without S9, exposure time: 24 hours | 0.58 | 2.5 | 159
concentration: 8.8 (µM), S9 metabolic activation: with S9, exposure time: 3-4 hours | 0.2 | 1.04 | 150
concentration: 8.8 (µM), S9 metabolic activation: without S9, exposure time: 24 hours | 0.54 | 2.08 | 138
concentration: 11 (µM), S9 metabolic activation: with S9, exposure time: 3-4 hours | 0.24 | 1.22 | 159
concentration: 11 (µM), S9 metabolic activation: without S9, exposure time: 24 hours | 0.62 | 3.06 | 144
concentration: 13.7 (µM), S9 metabolic activation: with S9, exposure time: 3-4 hours | 0.2 | 1.38 | 166
concentration: 13.7 (µM), S9 metabolic activation: without S9, exposure time: 24 hours | 0.62 | 2.52 | 128
concentration: 17.2 (µM), S9 metabolic activation: with S9, exposure time: 3-4 hours | 0.14 | 1.42 | 171
concentration: 17.2 (µM), S9 metabolic activation: without S9, exposure time: 24 hours | 0.6 | 2.44 | 128
concentration: 21.5 (µM), S9 metabolic activation: with S9, exposure time: 3-4 hours | 0.38 | 1.92 | 117
concentration: 21.5 (µM), S9 metabolic activation: without S9, exposure time: 24 hours | 0.78 | 2.16 | 117
concentration: 26.8 (µM), S9 metabolic activation: with S9, exposure time: 3-4 hours | 0.16 | 2.86 | 181
concentration: 26.8 (µM), S9 metabolic activation: without S9, exposure time: 24 hours | 0.78 | 2.04 | 128
concentration: 33.6 (µM), S9 metabolic activation: with S9, exposure time: 3-4 hours | 0.48 | 2.72 | 155
concentration: 33.6 (µM), S9 metabolic activation: without S9, exposure time: 24 hours | 0.5 | 1.78 | 164
concentration: 41.9 (µM), S9 metabolic activation: with S9, exposure time: 3-4 hours | 0.62 | 3.86 | 122
concentration: 41.9 (µM), S9 metabolic activation: without S9, exposure time: 24 hours | 0.6 | 2.1 | 158
concentration: 52.4 (µM), S9 metabolic activation: with S9, exposure time: 3-4 hours | 1.1 | 6.54 | 107
concentration: 52.4 (µM), S9 metabolic activation: without S9, exposure time: 24 hours | 0.9 | 3.08 | 144
concentration: 65.5 (µM), S9 metabolic activation: with S9, exposure time: 3-4 hours | 1.16 | 11.4 | 77
concentration: 65.5 (µM), S9 metabolic activation: without S9, exposure time: 24 hours | 0.86 | 2.42 | 149
concentration: 81.9 (µM), S9 metabolic activation: with S9, exposure time: 3-4 hours | 1.54 | 32.4 | 57.5
concentration: 81.9 (µM), S9 metabolic activation: without S9, exposure time: 24 hours | 1.02 | 2.38 | 136
concentration: 102 (µM), S9 metabolic activation: with S9, exposure time: 3-4 hours | 1.83 | 64.9 | 43.5
concentration: 102 (µM), S9 metabolic activation: without S9, exposure time: 24 hours | 0.7 | 3.68 | 122
concentration: 128 (µM), S9 metabolic activation: with S9, exposure time: 3-4 hours | – | – | 33.5
concentration: 128 (µM), S9 metabolic activation: without S9, exposure time: 24 hours | 0.92 | 5.48 | 132
concentration: 160 (µM), S9 metabolic activation: with S9, exposure time: 3-4 hours | – | – | 30
concentration: 160 (µM), S9 metabolic activation: without S9, exposure time: 24 hours | 1.16 | 3.26 | 120
concentration: 200 (µM), S9 metabolic activation: with S9, exposure time: 3-4 hours | – | – | 30.6
concentration: 200 (µM), S9 metabolic activation: without S9, exposure time: 24 hours | 1.04 | 2.78 | 115
